# The list shows a part of the results.
# B1: LTL (Lotus tetragonolobus), P19664 (protein)
# chain: VSFNYTEFKDDGSLILQGDAKIWTDGRLAMPTDPLVNNPKTTRSAGRALYATPVPIWDSATGNVASFVTSFNFLFVIRELKYTPTDGLVFFLAPVGTEIPSGSTGGFLGIFDGSNGFNQFVAVEFDSYHNIWDPKSLRSSHVGIDVNSIMSLKAVNWNRVSGSLEKATIIYDSQTNILSVVMTSQNGQITTIYGTIDLKTVLPEKVSVGFSATTGNPEREKHDIYSWSFTSTLKEPEEQA
# Key:
# Test in all cases: glycan array binding signal (z-score within array); higher = stronger binding
# Settings in all cases: glycan notation: IUPAC condensed, linker removed
# [1] = biological target: Gal(b1-3)GalNAc(b1-3)Gal(a1-4)Gal(b1-4)Glc
# How it was run: (§1)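 Columns mapping to the same glycan were averaged after glycan names were converted to IUPAC-condensed notation. The data come from 3228 arrays in the Consortium for Functional Glycomics database, limited to those with an available protein sequence. Binding is reported as a within-array Z-score averaged across arrays of one protein sequence and across linkers.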
# [2] = biological target: Gal(b1-3)GalNAc(b1-3)Gal(b1-4)Glc
# How it was run: as §1
# [3] = biological target: Gal(b1-3)GalNAc(b1-3)Gal(b1-4)GlcNAc
# How it was run: as §1
# [4] = biological target: Gal(b1-3)GalNAc(b1-4)Gal(b1-4)Glc
# How it was run: as §1
# [5] = biological target: Gal(b1-3)GalNAc(b1-4)[Neu5Ac(a2-3)]Gal(b1-4)Glc
# How it was run: as §1
# Gal(b1-3)GlcNAc = biological target: Gal(b1-3)GlcNAc
# How it was run: as §1
# [6] = biological target: Gal(b1-3)GlcNAc(a1-3)Gal(b1-4)GlcNAc
# How it was run: as §1
# [7] = biological target: Gal(b1-3)GlcNAc(a1-6)Gal(b1-4)GlcNAc
# How it was run: as §1
# Gal(b1-3)GlcNAc(b1-2)Man = biological target: Gal(b1-3)GlcNAc(b1-2)Man
# How it was run: as §1
# [8] = biological target: Gal(b1-3)GlcNAc(b1-2)Man(a1-3)[Gal(b1-3)GlcNAc(b1-2)Man(a1-6)]Man(b1-4)GlcNAc(b1-4)GlcNAc
# How it was run: as §1
# [9] = biological target: Gal(b1-3)GlcNAc(b1-2)Man(a1-3)[Gal(b1-3)GlcNAc(b1-2)Man(a1-6)]Man(b1-4)GlcNAc(b1-4)[Fuc(a1-6)]GlcNAc
# How it was run: as §1
# [10] = biological target: Gal(b1-3)GlcNAc(b1-2)Man(a1-3)[GlcNAc(b1-4)][Gal(b1-3)GlcNAc(b1-2)Man(a1-6)]Man(b1-4)GlcNAc(b1-4)GlcNAc
# How it was run: as §1
# [11] = biological target: Gal(b1-3)GlcNAc(b1-2)[Gal(b1-3)GlcNAc(b1-6)]Man(a1-6)[Gal(b1-3)GlcNAc(b1-2)Man(a1-3)]Man(b1-4)GlcNAc(b1-4)GlcNAc
# How it was run: as §1
# [12] = biological target: Gal(b1-3)GlcNAc(b1-3)Gal(b1-3)GlcNAc
# How it was run: as §1
# [13] = biological target: Gal(b1-3)GlcNAc(b1-3)Gal(b1-4)Glc
# How it was run: as §1
# [14] = biological target: Gal(b1-3)GlcNAc(b1-3)Gal(b1-4)GlcNAc
# How it was run: as §1
# [15] = biological target: Gal(b1-3)GlcNAc(b1-3)Gal(b1-4)GlcNAc(b1-2)Man(a1-3)[Gal(b1-3)GlcNAc(b1-3)Gal(b1-4)GlcNAc(b1-2)Man(a1-6)]Man(b1-4)GlcNAc(b1-4)GlcNAc
# How it was run: as §1
# [16] = biological target: Gal(b1-3)GlcNAc(b1-3)Gal(b1-4)GlcNAc(b1-2)[Gal(b1-3)GlcNAc(b1-3)Gal(b1-4)GlcNAc(b1-6)]Man(a1-6)[Gal(b1-3)GlcNAc(b1-3)Gal(b1-4)GlcNAc(b1-2)Man(a1-3)]Man(b1-4)GlcNAc(b1-4)[Fuc(a1-6)]GlcNAc
# How it was run: as §1
# [17] = biological target: Gal(b1-3)GlcNAc(b1-3)Gal(b1-4)GlcNAc(b1-3)Gal(b1-4)GlcNAc(b1-2)[Gal(b1-3)GlcNAc(b1-3)Gal(b1-4)GlcNAc(b1-3)Gal(b1-4)GlcNAc(b1-6)]Man(a1-6)[Gal(b1-3)GlcNAc(b1-3)Gal(b1-4)GlcNAc(b1-3)Gal(b1-4)GlcNAc(b1-2)Man(a1-3)]Man(b1-4)GlcNAc(b1-4)[Fuc(a1-6)]GlcNAc
# How it was run: as §1
# [18] = biological target: Gal(b1-3)GlcNAc(b1-3)Gal(b1-4)GlcNAc(b1-6)[Gal(b1-3)GlcNAc(b1-3)]Gal(b1-4)Glc
# How it was run: as §1
# [19] = biological target: Gal(b1-3)GlcNAc(b1-3)Gal(b1-4)[Fuc(a1-3)]GlcNAc
# How it was run: as §1
# [20] = biological target: Gal(b1-3)GlcNAc(b1-3)Gal(b1-4)[Fuc(a1-3)]GlcNAc(b1-6)[Gal(b1-3)GlcNAc(b1-3)]Gal(b1-4)Glc
# How it was run: as §1
# [21] = biological target: Gal(b1-3)GlcNAc(b1-3)GalNAc
# How it was run: as §1
# [22] = biological target: Gal(b1-3)GlcNAc(b1-6)Gal(b1-4)GlcNAc
# How it was run: as §1
# [23] = biological target: Gal(b1-3)GlcNAc(b1-6)GalNAc
# How it was run: as §1
# [24] = biological target: Gal(b1-3)GlcNAc(b1-6)[Gal(b1-3)]GalNAc
# How it was run: as §1
# Gal(b1-3)GlcNAc6S = biological target: Gal(b1-3)GlcNAc6S
# How it was run: as §1
# [25] = biological target: Gal(b1-3)[Fuc(a1-4)]GlcNAc
# How it was run: as §1
# [26] = biological target: Gal(b1-3)[Fuc(a1-4)]GlcNAc(b1-2)Man
# How it was run: as §1
# [27] = biological target: Gal(b1-3)[Fuc(a1-4)]GlcNAc(b1-2)Man(a1-3)[Gal(b1-3)[Fuc(a1-4)]GlcNAc(b1-2)Man(a1-6)]Man(b1-4)GlcNAc(b1-4)[Fuc(a1-6)]GlcNAc
# How it was run: as §1
# [28] = biological target: Gal(b1-3)[Fuc(a1-4)]GlcNAc(b1-3)Gal(b1-3)[Fuc(a1-4)]GlcNAc
# How it was run: as §1
# [29] = biological target: Gal(b1-3)[Fuc(a1-4)]GlcNAc(b1-3)Gal(b1-4)GlcNAc
# How it was run: as §1
# [30] = biological target: Gal(b1-3)[Fuc(a1-4)]GlcNAc(b1-3)Gal(b1-4)[Fuc(a1-3)]GlcNAc
# How it was run: as §1
# [31] = biological target: Gal(b1-3)[Fuc(a1-4)]GlcNAc(b1-6)GalNAc
# How it was run: as §1
# [32] = biological target: Gal(b1-3)[GlcNAc(b1-6)]GalNAc
# How it was run: as §1
# [33] = biological target: Gal(b1-3)[GlcNAc(b1-6)]GlcNAc
# How it was run: as §1
# [34] = biological target: Gal(b1-3)[Neu5Ac(a2-6)]GalNAc
# How it was run: as §1
# [35] = biological target: Gal(b1-3)[Neu5Ac(a2-6)]GlcNAc
# How it was run: as §1
binder,measurement,setting,value
B1,glycan array binding signal (z-score),[1],0.007
same,glycan array binding signal (z-score),[2],-0.372
same,glycan array binding signal (z-score),[3],0.163
same,glycan array binding signal (z-score),[4],0.163
same,glycan array binding signal (z-score),[5],-0.124
same,glycan array binding signal (z-score),Gal(b1-3)GlcNAc,-0.211
same,glycan array binding signal (z-score),[6],-0.34
same,glycan array binding signal (z-score),[7],-0.022
same,glycan array binding signal (z-score),Gal(b1-3)GlcNAc(b1-2)Man,0.121
same,glycan array binding signal (z-score),[8],0.015
same,glycan array binding signal (z-score),[9],0.108
same,glycan array binding signal (z-score),[10],-0.218
same,glycan array binding signal (z-score),[11],0.022
same,glycan array binding signal (z-score),[12],0.056
same,glycan array binding signal (z-score),[13],-0.217
same,glycan array binding signal (z-score),[14],-0.32
same,glycan array binding signal (z-score),[15],-0.31
same,glycan array binding signal (z-score),[16],0.015
same,glycan array binding signal (z-score),[17],0.251
same,glycan array binding signal (z-score),[18],-0.126
same,glycan array binding signal (z-score),[19],-0.347
same,glycan array binding signal (z-score),[20],-0.202
same,glycan array binding signal (z-score),[21],-0.141
same,glycan array binding signal (z-score),[22],-0.058
same,glycan array binding signal (z-score),[23],-0.399
same,glycan array binding signal (z-score),[24],-0.151
same,glycan array binding signal (z-score),Gal(b1-3)GlcNAc6S,-0.34
same,glycan array binding signal (z-score),[25],-0.207
same,glycan array binding signal (z-score),[26],-0.193
same,glycan array binding signal (z-score),[27],0.031
same,glycan array binding signal (z-score),[28],-0.206
same,glycan array binding signal (z-score),[29],-0.389
same,glycan array binding signal (z-score),[30],-0.319
same,glycan array binding signal (z-score),[31],0.223
same,glycan array binding signal (z-score),[32],0.04
same,glycan array binding signal (z-score),[33],-0.632
same,glycan array binding signal (z-score),[34],-0.277
same,glycan array binding signal (z-score),[35],-0.453

# — the supplement of paper PMC8728848
